Source: the supplement of paper PMC4604168 (melanoma cell lines)
Some of the results follow. Many values rest on one well or one pass, so single values are uncertain.

Key:
Test in all cases: cell count relative to DMSO control; melanoma cells; higher = more viable cells
Conditions in all cases: library dose: low library concentration; 72 h
WM115 = tested on: WM115
WM1716 = tested on: WM1716
WM1745 = tested on: WM1745
WM3526 = tested on: WM3526
WM3619 = tested on: WM3619
WM451Lu = tested on: WM451Lu
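Note: cell number obtained by counting DAPI-stained nuclei in high-throughput microscope images with image analysis software, screen run in 1,536-well plates.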

Compound	cell count (WM115)	cell count (WM1716)	cell count (WM1745)	cell count (WM3526)	cell count (WM3619)	cell count (WM451Lu)
Cn1cc(C2=C(c3cn(C4CCN(Cc5ccccn5)CC4)c4ccccc34)C(=O)NC2=O)c2ccccc21 [Enzastaurin] + NCC(=O)Nc1ccc(-n2nc(C(F)(F)F)cc2-c2ccc3c(ccc4ccccc43)c2)cc1 [OSU03012] (first compound 0.8 µM, partner dose 1 µM)	86%	85.9%	87.9%	64.3%	106%	61.5%
C[C@]12O[C@H](C[C@]1(O)CO)n1c3ccccc3c3c4c(c5c6ccccc6n2c5c31)CNC4=O [Lestaurtinib] + O=c1cc(-c2cccc3c2Sc2ccccc2S3)oc(N2CCOCC2)c1 [KU55933] (first compound 0.004 µM, partner dose 1 µM)	94%	117%	90.4%	83%	108%	90.3%
Cn1cc(C2=C(c3cn(C4CCN(Cc5ccccn5)CC4)c4ccccc34)C(=O)NC2=O)c2ccccc21 [Enzastaurin] + Nc1ccn([C@@H]2O[C@H](CO)[C@@H](O)C2(F)F)c(=O)n1 [gemcitabine] (first compound 0.8 µM, partner dose 0.0004 µM)	111%	121%	78.7%	79.9%	90.5%	101%
Cn1cc(C2=C(c3cn(C4CCN(Cc5ccccn5)CC4)c4ccccc34)C(=O)NC2=O)c2ccccc21 [Enzastaurin] + COc1ccc(-c2ccc3c(N4CCOCC4)nc(N4C[C@@H](C)O[C@@H](C)C4)nc3n2)cc1CO [KU0063794] (first compound 0.8 µM, partner dose 0.02 µM)	96.3%	96.5%	103%	81.7%	91.4%	102%
Cn1cc(C2=C(c3cn(C4CCN(Cc5ccccn5)CC4)c4ccccc34)C(=O)NC2=O)c2ccccc21 [Enzastaurin] + CCN(CC)CCNC(=O)c1c(C)[nH]c(/C=C2\C(=O)Nc3ccc(F)cc32)c1C [sunitinib] (first compound 0.8 µM, partner dose 0.4 µM)	116%	123%	88.9%	108%	94.3%	129%
Cn1cc(C2=C(c3cn(C4CCN(Cc5ccccn5)CC4)c4ccccc34)C(=O)NC2=O)c2ccccc21 [Enzastaurin] + CCCS(=O)(=O)Nc1ccc(F)c(C(=O)c2c[nH]c3ncc(Cl)cc23)c1F [PLX4720] (first compound 0.8 µM, partner dose 0.08 µM)	123%	94.9%	107%	114%	83%	112%
C[C@]12O[C@H](C[C@]1(O)CO)n1c3ccccc3c3c4c(c5c6ccccc6n2c5c31)CNC4=O [Lestaurtinib] + CC(C)CCN1c2nc(Nc3cc(F)c(O)c(F)c3)ncc2N(C)C(=O)C1C [BID1870] (first compound 0.004 µM, partner dose 0.2 µM)	90.3%	111%	106%	104%	108%	89.1%
N.N.[Cl][Pt][Cl] [cisplatin] + O=C(Nc1cccc(Cl)c1)Nc1ncc(CCNc2ncnc3ccsc23)s1 [SNS314] (first compound 1.6 µM, partner dose 0.0008 µM)	74.2%	109%	101%	103%	79.4%	116%
N.N.[Cl][Pt][Cl] [cisplatin] + O=C1NC(=O)/C(=C/c2ccc(-c3ccc(F)cc3O)o2)S1 [AS252424] (first compound 1.6 µM, partner dose 1 µM)	101%	99.2%	88%	85.3%	117%	81.6%
Cn1cc(C2=C(c3cn(C4CCN(Cc5ccccn5)CC4)c4ccccc34)C(=O)NC2=O)c2ccccc21 [Enzastaurin] + CC(C)C[C@H](NC(=O)[C@H](Cc1ccccc1)NC(=O)c1cnccn1)B(O)O [Bortezomib] (first compound 0.8 µM, partner dose 0.001 µM)	115%	62%	43.5%	103%	8.95%	106%
N.N.[Cl][Pt][Cl] [cisplatin] + Cn1cc(/C=C2\C(=O)Nc3cccnc32)c2ccccc21 [GW441756] (first compound 1.6 µM, partner dose 0.4 µM)	86.5%	89.5%	96.9%	79.3%	80.6%	69.7%
C[As](C)SC[C@H](NC(=O)CC[C@H](N)C(=O)O)C(=O)NCC(=O)O [Darinaparsin] + CC(C)CCN1c2nc(Nc3cc(F)c(O)c(F)c3)ncc2N(C)C(=O)C1C [BID1870] (first compound 0.4 µM, partner dose 0.2 µM)	90.4%	82.8%	104%	101%	91.4%	104%
N.N.[Cl][Pt][Cl] [cisplatin] + COc1cc(N2CCC(N3CCN(C)CC3)CC2)ccc1Nc1ncc(Cl)c(Nc2ccccc2S(=O)(=O)C(C)C)n1 [NVP-TAE684] (first compound 1.6 µM, partner dose 0.08 µM)	95.6%	96.1%	74.9%	73.9%	64.4%	95.5%
Cn1cc(C2=C(c3cn(C4CCN(Cc5ccccn5)CC4)c4ccccc34)C(=O)NC2=O)c2ccccc21 [Enzastaurin] + C[As](C)SC[C@H](NC(=O)CC[C@H](N)C(=O)O)C(=O)NCC(=O)O [Darinaparsin] (first compound 0.8 µM, partner dose 0.4 µM)	123%	116%	87.1%	105%	102%	109%
C[As](C)SC[C@H](NC(=O)CC[C@H](N)C(=O)O)C(=O)NCC(=O)O [Darinaparsin] + CN(C)S(=O)(=O)c1ccc2c(c1)/C(=C/c1cc3c([nH]1)CCCC3)C(=O)N2 [SU6656] (first compound 0.4 µM, partner dose 0.4 µM)	99.7%	113%	104%	88.6%	97.3%	108%
N.N.[Cl][Pt][Cl] [cisplatin] + OCc1c[nH]c2ccccc12 [Indole-3-carbinol] (first compound 1.6 µM, partner dose 0.8 µM)	107%	98.1%	105%	94.8%	93.1%	92.6%
Cn1cc(C2=C(c3cn(C4CCN(Cc5ccccn5)CC4)c4ccccc34)C(=O)NC2=O)c2ccccc21 [Enzastaurin] + CC(=O)O[C@@]12CO[C@@H]1C[C@H](O)[C@@]1(C)C(=O)[C@H](O)C3=C(C)[C@@H](OC(=O)[C@H](O)[C@@H](NC(=O)OC(C)(C)C)c4ccccc4)C[C@@](O)([C@@H](OC(=O)c4ccccc4)[C@H]21)C3(C)C [Docetaxel] (first compound 0.8 µM, partner dose 0.0001 µM)	71.5%	48.1%	52%	55.8%	67.5%	78.3%
C[As](C)SC[C@H](NC(=O)CC[C@H](N)C(=O)O)C(=O)NCC(=O)O [Darinaparsin] + N#Cc1c(O)c2c(-c3ccc(-c4ccccc4O)cc3)csc2[nH]c1=O [A769662] (first compound 0.4 µM, partner dose 2 µM)	99.4%	94.5%	92.1%	90.2%	82%	102%
N.N.[Cl][Pt][Cl] [cisplatin] + CS(=O)(=O)CCNCc1ccc(-c2ccc3ncnc(Nc4ccc(OCc5cccc(F)c5)c(Cl)c4)c3c2)o1 [lapatinib] (first compound 1.6 µM, partner dose 0.8 µM)	114%	90.6%	97.6%	93.9%	94.9%	77.3%
N.N.[Cl][Pt][Cl] [cisplatin] + C#Cc1cccc(Nc2ncnc3cc(OCCOC)c(OCCOC)cc23)c1 [erlotinib] (first compound 1.6 µM, partner dose 0.8 µM)	94.1%	98.3%	97.9%	119%	98.5%	90.2%
C[C@]12O[C@H](C[C@]1(O)CO)n1c3ccccc3c3c4c(c5c6ccccc6n2c5c31)CNC4=O [Lestaurtinib] + Oc1cc(-c2nc(-c3ccccc3)[nH]c2-c2ccncc2)ccc1Cl [L779450] (first compound 0.004 µM, partner dose 0.2 µM)	79.7%	125%	97.7%	49.1%	110%	90.6%
Cn1cc(C2=C(c3cn(C4CCN(Cc5ccccn5)CC4)c4ccccc34)C(=O)NC2=O)c2ccccc21 [Enzastaurin] + N#Cc1c(O)c2c(-c3ccc(-c4ccccc4O)cc3)csc2[nH]c1=O [A769662] (first compound 0.8 µM, partner dose 2 µM)	124%	114%	83.6%	108%	134%	117%
C[C@]12O[C@H](C[C@]1(O)CO)n1c3ccccc3c3c4c(c5c6ccccc6n2c5c31)CNC4=O [Lestaurtinib] + COc1ccc(COc2ccc(Cc3cnc(N)nc3N)cc2OC)cc1 [GW2580] (first compound 0.004 µM, partner dose 1 µM)	92.4%	93%	90.4%	83.2%	103%	107%
Cn1cc(C2=C(c3cn(C4CCN(Cc5ccccn5)CC4)c4ccccc34)C(=O)NC2=O)c2ccccc21 [Enzastaurin] + C=C(c1ccc(C(=O)O)cc1)c1cc2c(cc1C)C(C)(C)CCC2(C)C [Bexarotene] (first compound 0.8 µM, partner dose 2 µM)	110%	96.8%	85.7%	107%	82%	104%
